According to PubChem BioAssay AID624417 (National Center for Advancing Translational Sciences (NCATS), 2012):
Screen size: about 410,000 compounds; about 6,400 (1.6%) were called active. The shares of active, inactive and inconclusive entries below differ from those in the screen. Calls follow the shape of the dose curve; as a rule, active = well fitted inhibition curve with a large enough effect; inconclusive = small, poorly fitted or top-dose-only effect; inactive = no such curve, though single readings can be large or run the other way. Potencies of inconclusive entries are left out as doubtful fits.

Target: Glucagon-like peptide 1 receptor (Homo sapiens) (UniProt P43220)
Chain of UniProt P43220 (P43220 whole entry, looked up): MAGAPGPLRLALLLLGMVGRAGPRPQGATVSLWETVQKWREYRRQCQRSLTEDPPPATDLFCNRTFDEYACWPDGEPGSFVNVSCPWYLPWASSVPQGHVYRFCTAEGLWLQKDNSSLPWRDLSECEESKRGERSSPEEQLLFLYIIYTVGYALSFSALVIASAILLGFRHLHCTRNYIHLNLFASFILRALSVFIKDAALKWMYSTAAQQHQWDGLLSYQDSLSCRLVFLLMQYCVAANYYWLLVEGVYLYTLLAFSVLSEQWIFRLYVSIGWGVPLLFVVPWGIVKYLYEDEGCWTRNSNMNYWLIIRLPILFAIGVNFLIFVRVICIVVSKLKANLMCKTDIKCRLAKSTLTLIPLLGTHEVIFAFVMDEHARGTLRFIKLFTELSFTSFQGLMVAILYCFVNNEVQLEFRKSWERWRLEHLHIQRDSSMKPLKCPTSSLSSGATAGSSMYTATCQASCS
Assay: qHTS of GLP-1 Receptor Inverse Agonists (Inhibition Mode); also: nearly all actives have a fitted effect of over 55% in size
Details: HEK293 GLP-1R CRE-luciferase, luminescence, 24 h, GLP-1R form is constitutively active; activity change, negative = inhibition: at 38.3 µM (top of the series) unless noted
Procedure, shortened: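 Luminescence readout: a drop in cAMP-driven luciferase signal flags inverse agonism at a constitutively active GLP-1R stably expressed in HEK293. Compound exposure lasted 24 hr at 37 deg C, 5% CO2.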
% is scaled to controls: 0 for no effect and ±100 for the full control effect; potency is read from the fitted curve at half-maximal effect; tags tell the direction and shape of the fitted curve.

Structure (SMILES)	Potency	activity change, negative = inhibition
Fc1cccc(Nc2c3c(nc4ccccc24)CCC3)c1	inconclusive [inhibitor, partial curve, poor fit]	–
COc1ccc(N2CCN(C(=O)CN3C(=O)NC(c4ccc(OC)cc4)(c4ccc(OC)cc4)C3=O)CC2)cc1	inconclusive [inhibitor, partial curve]	–
O=C(NCCn1ccc2ccccc21)c1cccc([N+](=O)[O-])c1	inconclusive [inhibitor, single point]	–
O=C(CNc1ccc(C(F)(F)F)cc1)Nc1cccc(S(=O)(=O)N2CCCC2)c1	inconclusive [inhibitor, partial curve, poor fit]	–
CNc1ccc(/C=C(\C#N)c2ccccn2)cc1[N+](=O)[O-]	–	inactive: 3.38% [at 0.307 µM]
Cc1cc(NC(=O)c2ccco2)c(=O)n(Cc2cccc(C(F)(F)F)c2)c1	inconclusive [inhibitor, partial curve]	–
CNC(=S)N/N=C/c1c(C)cccc1Cl	inconclusive [inhibitor, partial curve, poor fit]	–
Cc1nn2c(nc(N3CCCCC3)c3ccccc32)c1C=O	–	inactive: 49.8%
Cc1ccccc1NC(=S)N(CCN(C)C)C(C)c1cccnc1 (stereo not given)	–	inactive: -7.93%
O=C1C2CCCN2C(c2ccc(F)cc2)N1c1ccc(Cl)cc1 (stereo not given)	inconclusive [inhibitor, single point]	–
COc1ccc(S(=O)(=O)n2nc(-c3ccco3)nc2NCc2ccc(N(C)C)cc2)cc1	–	inactive: -6.98%
CN(CC(=O)Nc1ccccc1Br)C(=O)c1ccccc1Cc1ccccc1	inconclusive [inhibitor, partial curve, poor fit]	–
COc1ccc(S(=O)(=O)c2cn(CC(=O)Nc3cc(C)ccc3C)c3ccccc3c2=O)cc1	–	inactive: 8.51%
COc1cccc(-n2cc(C(=O)NCCc3ccc(C)cc3)c3ccccc3c2=O)c1	inconclusive [inhibitor, single point]	–
CC1CN(CCCCOc2ccc(C(C)C)cc2)CC(C)O1 (stereo not given)	inconclusive [inhibitor, single point]	–
COCCCNC(=O)CN(CCc1ccccc1)S(=O)(=O)c1ccc(C)cc1	inconclusive [inhibitor, partial curve, poor fit]	–
CC1=C(C(=O)N(C(C)C)C(C)C)CC(CC(=O)NCCCCc2ccccc2)C(=O)N1CCC1=CCCCC1 (stereo not given)	inconclusive [inhibitor, single point]	–
O=C(NC(=S)NCCC1=CCCCC1)c1cccnc1	–	inactive: -26.9%
Cc1ccccc1/C=N/Nc1ccnc2cc(Cl)ccc12	inconclusive [inhibitor, partial curve, poor fit]	–
C=CCNC(=O)c1cc(-c2ccc3c(c2)OCO3)on1	inconclusive [inhibitor, partial curve, poor fit]	–
CC12CC(NC(=O)N1c1cccc(C(=O)NCc3ccc4c(c3)OCO4)c1)c1cc(Cl)ccc1O2 (stereo not given)	active: 1.58 µM	–
COc1ccc(CNC(=O)[C@H](C)NC(=O)N2CCn3c2nc2ccccc23)cc1	inconclusive [inhibitor, partial curve, poor fit]	–

Structure (SMILES)	Potency	activity change, negative = inhibition
CCN(CC)CCN(C(=O)c1ccc2c(c1)CCCC2)c1nc2ccc(F)cc2s1	inconclusive [inhibitor, single point]	–
CCCCC/C(=N\NC(=O)Nc1ccccc1)c1ccccc1	inconclusive [inhibitor, partial curve, poor fit]	–
CCCc1cc(C(=O)N2CCCC(N3CCN(c4ccc(F)cc4)CC3)C2)no1 (stereo not given)	inconclusive [inhibitor, partial curve]	–
COc1cccc(CN(C)C(=O)c2ccc(COc3ccc(Cl)cc3)cc2)c1OC	inconclusive [inhibitor, single point]	–
COc1ccc(Br)cc1CN1CCN(c2ncccn2)CC1	inconclusive [inhibitor, partial curve, poor fit]	–
C(=N\NC(=Nc1ccccc1)c1ccccn1)/c1ccccn1	inconclusive [inhibitor, partial curve, poor fit]	–
O=C(Nc1cccc(S(=O)(=O)C(F)F)c1)c1ccc(S(=O)(=O)N2CCCC2)cc1	inconclusive [inhibitor, partial curve, poor fit]	–
Cc1cccc(CSCCNC(=O)CCSc2ccccc2)c1	inconclusive [inhibitor, single point]	–
O=C(Nc1cc(C(F)(F)F)ccc1Cl)C(Sc1ccccn1)c1ccccc1 (stereo not given)	active: 8.91 µM	–
COC(=O)c1cc(CSC(=N)N)ccc1OCCC(C)C	active: 10 µM	–
CSc1ccccc1NC(=O)CN(C)C(=O)COc1cccc2cccnc12	inconclusive [inhibitor, partial curve, poor fit]	–
COc1ccc2[nH]c(=O)c(CN(c3ccccc3)S(=O)(=O)c3ccccc3)cc2c1	–	inactive: 0.056%
COc1ccccc1-n1ncc2c(=O)[nH]c(SCC(=O)Nc3ccc(Cl)cc3)nc21	–	inactive: -1.88%
O=C(c1cccc(-n2cccc2)c1)N1CCN(S(=O)(=O)c2c(F)cccc2F)CC1	inconclusive [inhibitor, partial curve]	–
COc1cc(-c2nc(Cn3nnc(C(=O)Nc4ccccc4)c3C)c(C)o2)cc(OC)c1OC	–	inactive: -23.5%
CCOC(=O)CCNC(=O)CCc1nnc(CCCc2ccccc2)o1	–	inactive: 10.3%
Cc1ccccc1CN1C(=O)/C(=C\c2ccc(C(=O)NCCN3CCOCC3)cc2)Sc2ccccc21	active: 11.2 µM	–
COc1ccccc1CNC(=S)NCCc1ccccc1	inconclusive [inhibitor, single point]	–
COc1cc(OC)c2ccc(=O)oc2c1C(CCN1CCN(c2ccccc2)CC1)c1ccc(N(C)C)cc1 (stereo not given)	–	inactive: 1.45%
CC1CCCCN1Cc1c(O)ccc2c(=O)c(-c3nc4ccccc4s3)coc12 (stereo not given)	inconclusive [inhibitor, single point]	–
O=C(NC(=S)Nc1ccccc1N1CCCC1)c1ccccc1[N+](=O)[O-]	inconclusive [inhibitor, single point]	–
COc1cccc(CNC(=O)[C@H](CC(C)C)NC(=O)N2CCn3c2nc2ccccc23)c1	inconclusive [inhibitor, partial curve, poor fit]	–

Structure (SMILES)	Potency	activity change, negative = inhibition
CC(=O)c1cccc(NC(=O)C2(C)Cc3c(-c4cccc(C(F)(F)F)c4)ccnc3O2)c1 (stereo not given)	inconclusive [inhibitor, single point]	–
COc1ccccc1N1CC(C)(C)C(=O)N(C(=O)c2ccc(Cl)cc2)C1=S	inconclusive [inhibitor, single point]	–
Cc1nnc(NC(=O)CSCc2cc(=O)c3cc(Cl)ccc3[nH]2)s1	–	inactive: 14.3%
Cc1cc(C(=O)COC(=O)c2cnccn2)c(C)n1-c1ccc(Br)cc1	inconclusive [inhibitor, single point]	–
CCN1CCc2c(sc(NC(=O)C3CCCCC3)c2C(=O)OC)C1	inconclusive [inhibitor, partial curve]	–
CC(=O)c1ccc(NC(=S)NC(C)c2ccc(Cl)cc2Cl)cc1 (stereo not given)	–	inactive: -0.124% [at 0.307 µM]
COc1ccc(CCNC(=O)c2ccc3c(c2)c(C)c(C)n3Cc2ccc(F)cc2)c(OC)c1OC	inconclusive [inhibitor, partial curve, poor fit]	–
C=Cc1ccc(Cn2c(C)c(C(=O)NCc3ccccc3C(F)(F)F)sc2=O)cc1	inconclusive [inhibitor, single point]	–
CC1(C(=O)NS(=O)(=O)c2ccc(C#N)cc2)CCN1C(=O)c1ccc(C2CCCCC2)cc1 (stereo not given)	–	inactive: 7.23%
CCCCN(C)c1c(C)nc2ccc(C(=O)Nc3cc(-c4ccccc4)ccc3OC)cn12	inconclusive [inhibitor, single point]	–
CN(CC(=O)Nc1ccc(Cl)cc1)C(=O)c1cc(-c2cccs2)nn1-c1ccccc1	inconclusive [inhibitor, partial curve, poor fit]	–
Cc1ccc(C(=O)NC2CCCCCCC2)c(Cl)c1	active: 3.98 µM	–
CC(=O)N(Cc1ccc(F)cc1)c1cccc(C)c1C	inconclusive [inhibitor, single point]	–
CCOC(=O)C1CCN(C(=O)c2ccccc2N(C)S(C)(=O)=O)CC1	–	inactive: 3.29%
CCOc1ccccc1NC(=O)c1ccc(S(=O)(=O)N(C)c2ccccc2)cc1	inconclusive [inhibitor, single point]	–
O=C(OCc1ccccc1)N1CCN(C(c2ccnc3ccccc23)c2nnnn2-c2ccc3c(c2)OCCO3)CC1 (stereo not given)	inconclusive [inhibitor, partial curve, poor fit]	–
COc1ccc(-c2nc3c4ccccc4n(CC(=O)N4CCN(c5ccccc5OC)CC4)c(=O)n3n2)cc1	–	inactive: 1.8%
COc1cccc(CN(C(=O)c2oc3cc(C)ccc3c2C)C2CCS(=O)(=O)C2)c1 (stereo not given)	–	inactive: -16.3%
CCN(CC)CC(C)CNC(=O)c1cc(-c2ccc(Br)s2)nc2ccccc12 (stereo not given)	inconclusive [inhibitor, partial curve, poor fit]	–
O=Cc1cn(CC(=O)Nc2ccc3c(c2)OCO3)c2ccccc12	inconclusive [inhibitor, single point]	–
CN1CCOc2cc(S(=O)(=O)Nc3ccc(F)cc3)ccc21	inconclusive [inhibitor, partial curve, poor fit]	–
